Sequences with one replicate were seen in a single cluster, so their values are uncertain.
Each sequence was assayed on ATP (assay: switch fluorescence ratio, 500 uM ATP over buffer (Cy3 cluster intensity, sum of 5 cycles each) (fold (ratio)); higher = stronger signal-on switching upon ATP binding; sequences stand for … in TCGTCGGCAGCGTCAGATGTGTATAAGAGACAGTTTTTTTTTTTTTTTTTTTTTTTTT…TC). Settings: aptamer strand: ATP DNA aptamer (quencher-CACCTGGGGGAGTATTGCGGAGGAAGG + anchor), 100 nM annealed; ATP concentration: 500 uM; one replicate.
Method in brief: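 Clusters carrying Cy3-labelled switching strands on a modified Illumina MiSeq flow-cell were annealed to 100 nM quencher-labelled ATP aptamer and imaged in selection buffer. They were imaged again after 15 min with 500 uM ATP at 22 °C, over five buffer/ATP cycles with NaOH stripping and re-annealing in between. For each cluster, the fluorescence ratio is the summed Cy3 intensity of the target cycles divided by that of the buffer cycles, averaged per switch-domain sequence. Clusters outside 100-1000 RFU were left out.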
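Also: ATP exposure 15 min at 22 °C before imaging.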

Sequence | switch fluorescence ratio
ATCGCTTCGG | 1.02
ATCGCTTTTG | 1.02
ATCGGACAGA | 1.01
ATCGGAGGCC | 1.06
ATCGGCCGA | 1.01
ATCGGGCTTA | 1.01
ATCGGGGTAC | 1.03
ATCGGTTGTC | 1.01
ATCGTAGGGG | 1.07
ATCGTCCAAC | 1.02
ATCGTCCGTC | 0.978
ATCGTCTTTT | 0.996
ATCGTGACAT | 0.992
ATCGTGGTAA | 0.975
ATCGTTAATG | 0.975
ATCGTTCAGT | 0.976
ATCGTTTCAG | 0.952
ATCTAAACAT | 0.998
ATCTAACGTT | 1.04
ATCTACTTAT | 1.04
ATCTATCTAT | 1.03
ATCTATTACA | 1.01
ATCTCAACTT | 1
ATCTCACGCC | 1.17
ATCTCCAAAG | 1.13

Sequence | switch fluorescence ratio
ATCTCCAGA | 1
ATCTCCCCAG | 2.24
ATCTCGCTTC | 1.09
ATCTCTGAAC | 1.03
ATCTGACACT | 1
ATCTGACAGT | 1.03
ATCTGATACT | 1.03
ATCTGGCCGT | 0.974
ATCTGGCGGG | 0.997
ATCTGTAAGC | 1.07
ATCTGTCCGG | 0.957
ATCTGTCGAT | 1.01
ATCTGTGTTA | 0.986
ATCTTAAGT | 1
ATCTTAGTAG | 1.01
ATCTTAGTGT | 0.996
ATCTTATGCC | 0.932
ATCTTCACGT | 1.02
ATCTTCGCTC | 1.44
ATCTTGGGTA | 1.03
ATCTTTACTC | 1.04
ATGAAAGGGG | 0.99
ATGAAATAAC | 1.03
ATGAAATAG | 1
ATGAAATCCT | 1.11

Sequence | switch fluorescence ratio
ATGAACGGAG | 1.03
ATGAACGGGA | 1.08
ATGAAGACG | 1.12
ATGACAACCC | 1.03
ATGACACGTA | 1.19
ATGACAGATA | 0.982
ATGACATGTT | 0.98
ATGACATTCT | 1.02
ATGACCAGTT | 0.976
ATGACGAACA | 1.08
ATGACTACGT | 1.01
ATGACTCCAG | 1.02
ATGACTGGAT | 1.02
ATGACTGGGA | 1.03
ATGAGAAGCG | 0.983
ATGAGATTGG | 0.988
ATGAGCCCCC | 0.98
ATGAGGAAAT | 2.06
ATGAGGCATA | 0.947
ATGAGGTGAA | 0.989
ATGAGTATAT | 0.981
ATGATAAGTG | 1.06
ATGATCATGT | 1.01
ATGATGCCTT | 1.01
ATGATGTAA | 0.971

Sequence | switch fluorescence ratio
ATGATTCACG | 1.04
ATGATTCTTG | 1.04
ATGATTGATA | 1.02
ATGATTTTAT | 0.997
ATGCAAAATA | 1.04
ATGCAAACAG | 1.05
ATGCAACGGT | 1.04
ATGCAAGTCG | 1.07
ATGCACATCC | 1.07
ATGCACGGCG | 1.09
ATGCACTTCG | 1.04
ATGCATATAC | 3.47
ATGCCAGCCG | 1.01
ATGCCAGCTT | 0.992
ATGCCCCGCG | 1.05
ATGCCCTGGG | 0.981
ATGCCGATG | 1.01
ATGCCGATTC | 1.01
ATGCCGCAT | 0.988
ATGCCTGAAG | 0.948
ATGCCTTTCT | 0.989
ATGCGAAGGG | 1.03
ATGCGACCCG | 1.06
ATGCGCGGAT | 1.03
ATGCGCTTCA | 0.999
